Read counts are not given, so values of variants with three or more changes are uncertain.
B1: LINE1-full (parent)
chain: UACGUAGGUGGUUUUCCCCUGAUAGUGCUAAGGGGGCCUGGAAGUUUGGACUGGGCAGAGCUCAACACAGCGUGGCAAAGUGGCUGUGGCUAGACUGCCUCUCUGGAUUCCUCGUCACUCAGCAGGGCAUCUCUGAGAGAAAUGCC

Variants of: B1
Assay: self-cleavage, relative activity (ratio to wild type); higher = more cleavage; in vitro, sequencing; the parent is a self-cleaving ribozyme
U104C U109C A138G showed a self-cleavage of 0.71.
Variant U96A A124C U132C has a self-cleavage of 0.11.
Work on C98U A136G A140G yielded a self-cleavage of 0.67.
In the case of C99U C118U U134C, the self-cleavage is reported as 0.38.
Variant U96A U108C C128U has a self-cleavage of 0.08.
U96C G126A A142G showed a self-cleavage of 0.14.
In the case of A94U U109C A136U, the self-cleavage is reported as 0.32.
U100C U134C A136G gave a self-cleavage of 1.62.
A107U U108C A117C showed a self-cleavage of 2.3.
Variant U102A U108A U115A has a self-cleavage of 1.63.
For U102C A117G A142G, the self-cleavage was 0.66.
In the case of U102C U108C U119C, the self-cleavage is reported as 1.97.
For U102C U134C C146U, the self-cleavage was 0.45.
Variant U102C A107G U132C has a self-cleavage of 1.13.
In the case of U108C U134A A136G, the self-cleavage is reported as 1.56.
With U109C A140G A142G the self-cleavage was 0.97.
For U115A A121G A140G C146U, the self-cleavage was 0.9.
For C98U G126A A136G, the self-cleavage was 0.62.
Work on C101U U119C A140G yielded a self-cleavage of 1.89.
With U108C U109C A138G the self-cleavage was 0.94.
Variant C101U A107G A124G has a self-cleavage of 1.62.
For U102C A138G A142G, the self-cleavage was 2.65.
U100A A129G A141G showed a self-cleavage of 1.19.
Work on U104A A138G G139A yielded a self-cleavage of 1.25.
Work on A94U U112A U132C yielded a self-cleavage of 0.37.
Work on A117G C133U A141G yielded a self-cleavage of 0.42.
U96A U108C A141G gave a self-cleavage of 0.08.
For U96C U102C A136U, the self-cleavage was 0.42.
For U102C A129G U132C, the self-cleavage was 0.92.
In the case of A117G A124G A136G, the self-cleavage is reported as 2.53.
In the case of U96A A117G A136U, the self-cleavage is reported as 0.07.
U104A U112C A136G gave a self-cleavage of 2.04.
In the case of U108C A138C A141G, the self-cleavage is reported as 2.07.
Variant U100C U108C G137A has a self-cleavage of 1.98.
U104A A107U A121G showed a self-cleavage of 2.87.
In the case of U96A U130C A136G, the self-cleavage is reported as 0.11.
With A107U U108A U130C the self-cleavage was 1.28.
For U102C U104C G114A, the self-cleavage was 0.63.
U102A A117U U132C gave a self-cleavage of 1.02.
Variant U112C G127C U134A has a self-cleavage of 1.97.
With U112C U119C C145G the self-cleavage was 1.75.
With U108C G114A A142G the self-cleavage was 1.58.
For C110U G114C U143A, the self-cleavage was 1.86.
Work on U102A U130A U143C yielded a self-cleavage of 1.47.
U102C U108A U109C A136G gave a self-cleavage of 0.77.
U96C A140G A142G showed a self-cleavage of 0.13.
Variant U108C A138U A142G has a self-cleavage of 1.45.
For U100A A124G U130A, the self-cleavage was 0.92.
U104C C118U U134C gave a self-cleavage of 1.65.
U104C A124U G127U A140G gave a self-cleavage of 1.58.
Work on U115C U119C A124U yielded a self-cleavage of 1.93.
With U96C U102C U119A the self-cleavage was 0.
In the case of A107G G139U A141G, the self-cleavage is reported as 1.8.
Variant U108C G125U U130C has a self-cleavage of 1.96.
U102C A117U A124G gave a self-cleavage of 1.26.
Work on C95A U109C U143A yielded a self-cleavage of 0.07.
Work on A107U A136G A140G yielded a self-cleavage of 1.79.
Work on U100C C103U G135A yielded a self-cleavage of 1.31.
Work on U96A A129U U130C A142G yielded a self-cleavage of 0.17.
For U112C G114A A124G G127U, the self-cleavage was 1.04.
With U102C A117U A138G the self-cleavage was 1.21.
In the case of U96A A138G U143C, the self-cleavage is reported as 0.09.
With U100C A107G C146U the self-cleavage was 2.4.
In the case of U112C A138U A142G, the self-cleavage is reported as 1.66.
Work on U96A G97A U108C yielded a self-cleavage of 0.07.
Work on U102C C113U A138G A142G yielded a self-cleavage of 1.66.
With U96A U104C A107G A124G the self-cleavage was 0.
In the case of A107U A136G C145U, the self-cleavage is reported as 1.27.
Variant U102A C111A A142G has a self-cleavage of 1.32.
U108C A124G A141G showed a self-cleavage of 2.83.
In the case of U96A U130A A136G, the self-cleavage is reported as 0.04.
Variant U115A A129U A140G has a self-cleavage of 1.96.
With C99A A117G A124G the self-cleavage was 0.52.
With U104A A129U U132A U143A the self-cleavage was 0.98.
With U100C U104A C116U the self-cleavage was 1.67.
With C113U U115A U143C the self-cleavage was 1.49.
Variant U96A U104C A140G has a self-cleavage of 0.02.
Variant A107G U132C A140U has a self-cleavage of 1.06.
In the case of U104A U119C A124G A141G, the self-cleavage is reported as 0.
U109C A136U A140G gave a self-cleavage of 1.84.
Variant C101A U108C G126A has a self-cleavage of 2.17.
With U112A A124U A138G the self-cleavage was 1.57.
G106A A124G U132A gave a self-cleavage of 1.96.

— the RNAGym collection of RNA variant scans (doi:10.7554/elife.90254)
